# Results from PubChem BioAssay (NCATS).
# Inconclusive means that the source gave no clear call. Such entries were picked first, then a sample of the others. For some of these results: Where the call is inconclusive, the potency comes from a doubtful curve fit. Calls of active or inactive are those of the source. Unless noted, calls follow the shape of the dose curve; as a rule, active = well fitted curve in the direction sought with a large enough effect; inconclusive = small, poorly fitted or top-dose-only effect, or another doubt; inactive = no such curve, though single readings can be large; an effect the other way counts as inactive or inconclusive.
# How the values were obtained:
# [1] = qHTS of pediatric cancer cell lines to identify multiple opportunities for drug repurposing: Primary screen for BT-37 cells (AID 1347094);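 as to activity change, negative = cytotoxic: plate controls were DMSO for no effect and bortezomib for full effect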
# Procedure, shortened: (§1)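 Quantitative HTS format: each compound titrated (MIPE 11 points from 0.78 nM, NPC 8 points from 0.59 nM) onto cells plated 5 hours earlier. After 48 h at 37 degrees C, CellTiter-Glo luminescence was recorded.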
# [2] = qHTS of pediatric cancer cell lines to identify multiple opportunities for drug repurposing: Primary screen for Rh41 cells (AID 1347108); also: nearly all actives have a fitted effect of over 70% in size;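 as to activity change, negative = cytotoxic: luminescence drop marks cytotoxic hits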
# Procedure, shortened: as §1
# [3] = tested on: CP297; assay: qHTS profiling for inhibitors of Plasmodium falciparum proliferation (AID 504749); also: nearly all actives have a fitted effect of over 60% in size;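 as to activity, negative = inhibition: 0% = DMSO vehicle and full inhibition = artemisinin control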; conditions: P. falciparum in erythrocytes, SYBR Green DNA, 72 h; activity, negative = inhibition: at 28.7 µM (top of the series)
# Procedure, shortened: (§2)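 Three-day growth assay of blood-stage parasites in erythrocytes (0.3% parasitemia, 2.5% hematocrit) at 37 C, 5% CO2, quantified by SYBR Green DNA staining after overnight detergent lysis.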
# [4] = tested on: P93_24; assay: as above; conditions: P. falciparum in erythrocytes, SYBR Green DNA, 72 h; series mostly up to 28.7 µM
# Procedure, shortened: as §2
# [5] = tested on: UISO; assay: qHTS assay to identify novel small-molecules to repurpose for Merkel cell carcinoma treatment (AID 1296009); conditions: MCC and control cell lines, CellTiter-Glo viability, 72 h; activity change, negative = cytotoxicity: at 46 µM (top of the series); also: nearly all actives have a fitted effect of over 60% in size; as to activity change, negative = cytotoxicity: % is scaled to controls: 0 for no effect and ±100 for the full control effect
# Procedure, shortened: (§3)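 After compound transfer in DMSO, plates were kept 72 hr at 37 degree celsius. Luminescent ATP signal from CellTiter-Glo served as viability measure, normalized against DMSO and no-cell controls.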
# [6] = tested on: astro; assay: Drug repurposing screens with cells derived from glioblastoma tumor samples (AID 1345199); conditions: viability, ATP luminescence, 48 h; series mostly up to 45.9 µM; also: nearly all actives have a fitted effect of over 40% in size
# Procedure, shortened: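 Four patient lines of CD133+ GBM neurospheres were screened at several concentrations; hits were retested in those lines plus three slower-growing GBM lines, using 48-hour treatment and ATP-based viability.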
# [7] = target: Cytochrome P450 2C9 (Homo sapiens) (UniProt P11712); assay: Cytochrome P450 family 2 subfamily C member 9 (CYP2C9) small molecule antagonists: luciferase biochemical (cell-free) qHTS assay (AID 1645842; active = well fitted curve in the direction sought with a large enough effect in the repeat runs; inconclusive = weak or mixed curves; inactive = no such curve, though single readings can be large; an effect the other way counts as inactive or inconclusive; also: nearly all actives have a fitted effect of over 55% in size)
# Procedure, shortened: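 Luminescence, after 20 min with luciferin detection reagent, reflected CYP2C9 turnover during a 1 h NADPH-driven reaction at 37C. Enzyme-substrate mix contained 0.4% bovine serum albumin and was preincubated with compound 10 min at room temperature.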
# [8] = target: Phospholipid hydroperoxide glutathione peroxidase GPX4 (Homo sapiens) (UniProt P36969); assay: Primary qHTS Assay for Inhibitors of Recombinant Selenoprotein Glutathione Peroxidase 4 (GPX4) (AID 1845192); also: nearly all actives have a fitted effect of over 65% in size
# Procedure, shortened: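 NADPH consumption, followed by fluorescence at 340/450 nm between 0 and 15 min, reports GPX4 activity via coupled glutathione reductase (100 nM). Enzyme 200 nM was pre-exposed to compound 30 min; 0.5 mM cumene hydroperoxide and 1 mM GSH served as substrates.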
# [9] = qHTS of pediatric cancer cell lines to identify multiple opportunities for drug repurposing: Primary screen for A673 cells (AID 1347092); conditions: A673 Ewing sarcoma viability, CellTiter-Glo ATP luminescence, 48 h; activity change, negative = cytotoxic: at 46 µM (top of the series); also: nearly all actives have a fitted effect of over 45% in size
# Procedure, shortened: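 Titration-based qHTS on A673 cells: MIPE compounds spanned 11 points (0.78 nM to 46 µM final), NPC compounds 8 points (0.59 nM to 46 µM final). Viability after 48 h was measured by ATP luminescence.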
# [10] = qHTS of pediatric cancer cell lines to identify multiple opportunities for drug repurposing: Primary screen for NB1643 cells (AID 1347099); also: nearly all actives have a fitted effect of over 50% in size
# Procedure, shortened: as §1
# [11] = target: Cytochrome P450 2D6 (Homo sapiens) (UniProt P10635); assay: Cytochrome P450 family 2 subfamily D member 6 (CYP2D6) small molecule antagonists: luciferase biochemical (cell-free) qHTS assay (AID 1645840; active = well fitted curve in the direction sought with a large enough effect in the repeat runs; inconclusive = weak or mixed curves; inactive = no such curve, though single readings can be large; an effect the other way counts as inactive or inconclusive; also: nearly all actives have a fitted effect of over 55% in size)
# Procedure, shortened: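 P450-Glo luminescent screen: recombinant CYP2D6 enzyme–proluciferin substrate mix preincubated with compound 10 min at room temperature, then NADPH regeneration added for 1 h at room temperature. Detection reagent added for 20 min; luciferin light read as relative luminescence units.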
# [12] = qHTS of pediatric cancer cell lines to identify multiple opportunities for drug repurposing: Primary screen for LAN-5 cells (AID 1347100);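 as to activity change, negative = cytotoxic: plate controls were DMSO neutral control for no effect and bortezomib positive control for full effect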
# Procedure, shortened: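 Cells (500-1,000/well) rested 5 h, then received compounds for 48 h; metabolically active cells were measured by CellTiter-Glo luminescence. Final concentrations spanned up to 46 µM (MIPE, 11-point) or 0.59 nM-46 µM (NPC, 8-point) in primary screens, 11-point in follow-ups.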
# [13] = tested on: DIV17; assay: qHTS profiling for inhibitors of Plasmodium falciparum proliferation (AID 504749); also: nearly all actives have a fitted effect of over 60% in size;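 as to activity, negative = inhibition: 0% = DMSO vehicle and full inhibition = artemisinin control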; conditions: P. falciparum in erythrocytes, SYBR Green DNA, 72 h; series mostly up to 28.7 µM
# Procedure, shortened: as §2
# [14] = tested on: MKL-1; assay: qHTS assay to identify novel small-molecules to repurpose for Merkel cell carcinoma treatment (AID 1296009); conditions: MCC and control cell lines, CellTiter-Glo viability, 72 h; activity change, negative = cytotoxicity: at 46 µM (top of the series); also: nearly all actives have a fitted effect of over 60% in size; as to activity change, negative = cytotoxicity: % is scaled to controls: 0 for no effect and ±100 for the full control effect
# Procedure, shortened: as §3
# [15] = tested on: CAOV3; assay: Primary qHTS to identify gynecologic anti-cancer compounds using libraries of approved drugs and bioactive compounds (AID 1345084); conditions: Gynecologic cancer cell panel viability, ATPlite luminescence, 48 h; series mostly up to 57.5 µM; also: nearly all actives have a fitted effect of over 55% in size; as to activity change, negative = cytotoxicity: % is scaled to controls: 0 for no effect and ±100 for the full control effect
# Procedure, shortened: (§4)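 ATP-based viability (ATPlite), 1,000 cells/well, 16 h pre-incubation, 48 h compound at 37 C, 5% CO2, 15 min RT before read.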
# [16] = tested on: Hek293T; assay: as above; conditions: Gynecologic cancer cell panel viability, ATPlite luminescence, 48 h, control line for the selectivity index; series mostly up to 57.5 µM
# Procedure, shortened: as §4
# [17] = tested on: Tov-21-G; assay: as above; conditions: Gynecologic cancer cell panel viability, ATPlite luminescence, 48 h; activity change, negative = cytotoxicity: at 57.5 µM (top of the series)
# Procedure, shortened: as §4
# [18] = tested on: Tov112D; assay: as above; conditions: Gynecologic cancer cell panel viability, ATPlite luminescence, 48 h; activity change, negative = cytotoxicity: at 57.5 µM (top of the series)
# Procedure, shortened: as §4
# [19] = tested on: PA-1; assay: as above; conditions: Gynecologic cancer cell panel viability, ATPlite luminescence, 48 h; series mostly up to 57.5 µM
# Procedure, shortened: as §4
# Potency is read from the fitted curve at half-maximal effect; tags tell the direction and shape of the fitted curve.
# Sequence of UniProt P11712 (P11712 whole entry, looked up): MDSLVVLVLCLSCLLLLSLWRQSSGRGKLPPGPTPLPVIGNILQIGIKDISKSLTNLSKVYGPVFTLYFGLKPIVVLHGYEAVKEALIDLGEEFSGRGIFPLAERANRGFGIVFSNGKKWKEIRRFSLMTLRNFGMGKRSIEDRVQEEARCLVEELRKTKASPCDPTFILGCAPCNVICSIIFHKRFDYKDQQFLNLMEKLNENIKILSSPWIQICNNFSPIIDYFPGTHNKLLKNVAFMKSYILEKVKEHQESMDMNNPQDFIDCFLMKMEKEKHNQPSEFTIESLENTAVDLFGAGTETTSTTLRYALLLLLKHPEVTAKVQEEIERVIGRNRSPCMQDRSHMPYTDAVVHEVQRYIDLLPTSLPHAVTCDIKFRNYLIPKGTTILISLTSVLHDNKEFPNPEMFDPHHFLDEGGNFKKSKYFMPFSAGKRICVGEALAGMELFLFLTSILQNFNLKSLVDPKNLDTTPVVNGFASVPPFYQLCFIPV
# Sequence of UniProt P36969 (P36969 whole entry, looked up): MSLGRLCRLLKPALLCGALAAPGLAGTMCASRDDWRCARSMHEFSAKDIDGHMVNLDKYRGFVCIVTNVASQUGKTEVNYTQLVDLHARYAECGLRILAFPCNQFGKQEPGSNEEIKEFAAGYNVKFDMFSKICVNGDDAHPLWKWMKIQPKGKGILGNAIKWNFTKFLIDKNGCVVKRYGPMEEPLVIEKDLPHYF
# Sequence of UniProt P10635 (P10635 whole entry, looked up): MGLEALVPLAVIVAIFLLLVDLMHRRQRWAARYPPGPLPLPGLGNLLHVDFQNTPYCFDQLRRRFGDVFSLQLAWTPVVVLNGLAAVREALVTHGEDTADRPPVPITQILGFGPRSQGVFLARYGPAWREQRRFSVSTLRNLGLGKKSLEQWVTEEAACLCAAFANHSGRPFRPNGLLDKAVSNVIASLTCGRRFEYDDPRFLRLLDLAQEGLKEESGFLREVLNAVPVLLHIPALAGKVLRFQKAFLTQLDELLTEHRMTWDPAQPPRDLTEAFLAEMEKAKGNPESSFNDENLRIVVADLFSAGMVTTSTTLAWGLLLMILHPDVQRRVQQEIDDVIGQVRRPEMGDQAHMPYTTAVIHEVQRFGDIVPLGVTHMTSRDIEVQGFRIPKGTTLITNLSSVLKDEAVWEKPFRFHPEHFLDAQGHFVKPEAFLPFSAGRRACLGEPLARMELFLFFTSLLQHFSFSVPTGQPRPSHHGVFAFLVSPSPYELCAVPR
compound,measurement,setting,value
CN(CCCN1c2ccccc2CCc2ccccc21)CC(=O)c1ccc(Cl)cc1,Potency,[1],inactive
same,Potency,[2],inactive
same,"activity, negative = inhibition",[3],inconclusive: -27.2% [inhibitor]
same,Potency,[4],active: 11.2 µM
same,Potency,[5],"inconclusive: 18.8 µM [inhibitor, partial curve, poor fit]"
same,Potency,[6],"inconclusive: 22.4 µM [inhibitor, partial curve]"
O=C(OCC(COC(=O)c1cccnc1)(COC(=O)c1cccnc1)COC(=O)c1cccnc1)c1cccnc1,Potency,[7],"inconclusive: 3.89 µM [inhibitor, full curve]"
same,Potency,[8],inactive
same,Potency,[6],inactive
O=C(NCc1ccccc1)[C@H](Cc1ccccc1)NC(=O)[C@@H]1O[C@@H]1C(=O)NCCc1ccc(O)cc1,Potency,[9],active: 1.18 µM
same,Potency,[1],"inconclusive: 21.7 µM [cytotoxic, partial curve, poor fit]"
same,Potency,[10],"inconclusive: 18.7 µM [cytotoxic, partial curve]"
O=C(OCCN1CCOCC1)c1cccnc1Nc1cccc(C(F)(F)F)c1,Potency,[11],"inconclusive: 27.5 µM [inhibitor, single point]"
same,Potency,[7],"inconclusive: 30.9 µM [inhibitor, single point]"
CC(=O)N/N=C/c1ccc([N+](=O)[O-])o1,Potency,[9],"inconclusive: 26.6 µM [cytotoxic, single point]"
same,Potency,[1],"inconclusive: 21.9 µM [cytotoxic, partial curve, poor fit]"
same,Potency,[10],"inconclusive: 33.5 µM [cytotoxic, single point]"
same,Potency,[12],"inconclusive: 33.5 µM [cytotoxic, single point]"
same,Potency,[2],"inconclusive: 23.7 µM [cytotoxic, single point]"
same,Potency,[7],inactive
same,Potency,[3],"inconclusive: 15.1 µM [inhibitor, partial curve, poor fit]"
same,Potency,[13],"inconclusive: 19 µM [inhibitor, single point]"
same,Potency,[4],"inconclusive: 17.8 µM [inhibitor, single point]"
same,Potency,[14],"inconclusive: 23.7 µM [inhibitor, single point]"
same,Potency,[5],"inconclusive: 21.1 µM [inhibitor, single point]"
same,Potency,[15],inactive
same,Potency,[6],"inconclusive: 20 µM [inhibitor, partial curve]"
COc1ccc([C@@H]2Sc3ccccc3NC(=O)[C@@H]2O)cc1,Potency,[9],"inconclusive: 26.6 µM [cytotoxic, single point]"
same,Potency,[1],"inconclusive: 38.9 µM [cytotoxic, single point]"
same,Potency,[12],"inconclusive: 21.1 µM [cytotoxic, single point]"
same,Potency,[7],"inconclusive: 21.9 µM [inhibitor, single point]"
same,Potency,[16],"inconclusive: 28.2 µM [cytotoxic, single point]"
same,Potency,[17],"inconclusive: 39.8 µM [cytotoxic, single point]"
same,Potency,[18],"inconclusive: 35.5 µM [cytotoxic, single point]"
Cn1c(=O)c2c(ncn2CC2OCCO2)n(C)c1=O,Potency,[1],inactive
same,Potency,[3],"inconclusive: 0.0169 µM [activator, full curve, poor fit]"
same,Potency,[13],inactive
same,Potency,[4],inactive
same,Potency,[5],inactive
O=C1[C@H](CC[C@H](O)c2ccc(F)cc2)[C@@H](c2ccc(O)cc2)N1c1ccc(F)cc1,Potency,[12],inactive
same,Potency,[2],"inconclusive: 18.8 µM [cytotoxic, partial curve, poor fit]"
same,Potency,[18],inactive
Cc1cccc(Nc2cc(Cl)nc(SCC(=O)O)n2)c1C,Potency,[1],inactive
same,Potency,[7],"inconclusive: 27.5 µM [inhibitor, single point]"
same,Potency,[13],inactive
COC(=O)C=CC(=O)OC,Potency,[10],active: 7.43 µM
same,Potency,[2],active: 23.5 µM
same,Potency,[5],inactive
CN(C)CC(=O)Nc1ccc2[nH]c(=O)c3ccccc3c2c1,Potency,[8],"inconclusive: 25.5 µM [inhibitor, single point]"
same,Potency,[16],"inconclusive: 39.8 µM [cytotoxic, single point]"
same,Potency,[19],"inconclusive: 12.6 µM [cytotoxic, partial curve, poor fit]"
same,Potency,[17],"inconclusive: 28.2 µM [cytotoxic, single point]"
CCN(CC)CCNC(=O)c1ccc(NC(C)=O)cc1,Potency,[2],inactive
same,Potency,[11],"inconclusive: 15.5 µM [inhibitor, partial curve]"
same,Potency,[5],inactive
Cn1ncc2cc(-c3cnc(N)c(Cl)c3N3CCC4(CCNC4=O)CC3)ccc21,Potency,[19],inactive
OC(C#CCN1CCCC1)(c1ccccc1)c1ccccc1,Potency,[12],inactive
same,Potency,[7],active: 8.71 µM
same,Potency,[13],active: 13.5 µM
same,Potency,[4],"inconclusive: 10 µM [inhibitor, single point]"
same,Potency,[6],inactive
